# Laboratory results as given in PubChem BioAssay (NCATS).
# “And” between values parts separate entries of the source, which are not always exact repeats. Equal entries are not always repeated. Inconclusive means that the source gave no clear call. Such entries were picked first, then a sample of the others. Potencies beside an inconclusive call are fits to weak or partial responses and may not hold up. The source made the active and inactive calls. The call rests on the fitted dose curve; in most records, active means well fitted cell-killing curve with a large enough effect; inconclusive means small, poorly fitted or top-dose-only effect, or effect the other way; inactive means no such curve, though single readings can be large or run the other way.
# Assay: Viability qHTS for spleen associated tyrosine kinase inhibitor (SYKi) drug resistant MV4-11 cells (AID 1963824); further: nearly all actives have a fitted effect of over 35% in size
# Conditions: SYKi-resistant MV4-11 viability, CellTiter-Glo, 72 h; series mostly up to 45 µM; viability, % of control: at the top concentration
# In short: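 SYK-inhibitor-resistant MV4-11 AML cells were seeded at 500 per well onto compound and cultured 72 hours (37 °C, 5% CO2). CellTiter-Glo was then added, and after 10 min at room temperature, luminescence gave viability.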
# Potency means the concentration at half of the fitted maximal effect; tags describe the fitted curve by direction and shape.
SMILES,Potency,"viability, % of control"
CC[C@@H](Oc1cccc(CN(CCCOc2ccc(OC)cc2)c2nc3ccccc3o2)c1)C(=O)O,"inconclusive: 23.5 µM [cytotoxic, partial curve]",–
O=c1[nH]sc2cc(Cl)ccc12,–,inactive: 5.53%
CC(C)Cc1ccc(CC(=O)O)cc1,"inconclusive: 10.6 µM [cytotoxic, partial curve]",–
O=C(OCC(O)CO)c1ccccc1Nc1ccnc2c(C(F)(F)F)cccc12 (stereo unspecified),"inconclusive: 26.6 µM [cytotoxic, single point]",–
COc1ccc(S(=O)(=O)NCc2ccc(C(=O)NCCc3ccc(Cl)cn3)cc2)cc1,"inconclusive: 16.6 µM [cytotoxic, partial curve]",–
Cc1cc(O)c2ccccc2c1O,"inconclusive: 3.76 µM [cytotoxic, partial curve]",–
Nc1ccc([N+](=O)[O-])cc1O,"inconclusive: 21.7 µM [cytotoxic, partial curve]",–
CCCCC(=O)O[C@]1(C(=O)CO)CC[C@H]2[C@@H]3CCC4=CC(=O)CC[C@]4(C)[C@H]3[C@@H](O)C[C@@]21C,–,inactive: 81.5%
COc1ccc(-n2c(SCCCN3C(=O)c4cccc5cccc(c45)C3=O)nnc2-c2ccncc2)cc1,"inconclusive: 20.9 µM [cytotoxic, partial curve]",–
Cc1ccc(Nc2ncc3c(n2)N(C)C(=O)N(c2cc(NC(=O)c4cccc(C(F)(F)F)c4)ccc2C)C3)cn1,active: 0.013 µM,–
OC[C@@H](O)[C@H](O)[C@H](O)[C@@H](O)CO,"inconclusive: 0.237 µM [cytotoxic, full curve, poor fit]",–
COc1ccc(C(=O)c2ccccc2)c(O)c1,–,inactive: 101%
Clc1ccc2c(c1)Nc1ccccc1S2,"inconclusive: 23.7 µM [cytotoxic, single point]",–
CCCC(=O)c1cc(O)c(O)cc1O,"inconclusive: 0.109 µM [rising, full curve]",–
CN(CCOc1ccc(C[C@H](Nc2ccccc2C(=O)c2ccccc2)C(=O)O)cc1)c1ccccn1,"inconclusive: 23.5 µM [cytotoxic, single point] and inconclusive: 14.8 µM [cytotoxic, partial curve]",–
Cc1c2oc3c(C)ccc(C(=O)N[C@@H]4C(=O)N[C@H](C(C)C)C(=O)N5CCC[C@H]5C(=O)N(C)CC(=O)N(C)[C@@H](C(C)C)C(=O)O[C@@H]4C)c3nc-2c(C(=O)N[C@@H]2C(=O)N[C@H](C(C)C)C(=O)N3CCC[C@H]3C(=O)N(C)CC(=O)N(C)[C@@H](C(C)C)C(=O)O[C@@H]2C)c(N)c1=O,"inconclusive: 0.0021 µM [cytotoxic, full curve]",–
COc1cc(C(=O)NC(N)=Nc2ccc(C)c(NC(=O)c3ccc(-c4ccccc4)cc3)c2)cc(OC)c1OC,active: 8.33 µM,–
COc1cc2c(NC3CCN(C4CCCCC4)CC3)nc(N3CCCN(C(C)C)CC3)nc2cc1OCCCN1CCCCC1,"inconclusive: 1.66 µM [cytotoxic, full curve]",–
CN(C)CCCN1c2ccccc2Sc2ccccc21,"inconclusive: 21.1 µM [cytotoxic, partial curve]",–
CC(=O)Nc1ccc(/C=N/NC(N)=S)cc1,"inconclusive: 33.5 µM [cytotoxic, partial curve, poor fit]",–
NC(=O)n1c(O)c(C(=O)c2cccs2)c2cc(Cl)ccc21,"inconclusive: 9.44 µM [cytotoxic, partial curve, poor fit]",–
Clc1ccc2c(c1)CCc1cccnc1C2=C1CCNCC1,"inconclusive: 21.1 µM [cytotoxic, single point]",–
C[C@@H](CN(C)C)CN1c2ccccc2Sc2ccccc21,"inconclusive: 26.6 µM [cytotoxic, single point]",–
Nc1nccn2c(C3CCC(C(=O)O)CC3)nc(-c3cc4cccc(Cl)c4[nH]3)c12 (stereo unspecified),active: 580 nM and active: 1.48 µM,–
C[C@@H](O[C@H]1OCCN(Cc2n[nH]c(=O)[nH]2)[C@H]1c1ccc(F)cc1)c1cc(C(F)(F)F)cc(C(F)(F)F)c1,"inconclusive: 13.3 µM [cytotoxic, partial curve]",–
Cc1nc2n(c(=O)c1CCN1CCC(c3noc4cc(F)ccc34)CC1)CCC[C@H]2O,"inconclusive: 4.11 µM [cytotoxic, partial curve, poor fit] and inactive",–
